Experimental data taken from the supplement of paper PMC8728848.
The other results are listed elsewhere or left out.

Columns and labels:
Experiment in all cases: glycan array binding signal (z-score within array); higher = stronger binding
Conditions in all cases: glycan notation: IUPAC condensed, linker removed
[1] = molecular target: Gal(a1-3)Gal(b1-4)GlcNAc(b1-2)Man
In short: (§1)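 Columns mapping to the same glycan were averaged after glycan names were converted to IUPAC-condensed notation. The data come from 3228 arrays in the Consortium for Functional Glycomics database, limited to those with an available protein sequence. Binding is reported as a within-array Z-score averaged across arrays of one protein sequence and across linkers.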

[2] = molecular target: Gal(a1-3)Gal(b1-4)GlcNAc(b1-2)Man(a1-3)[Gal(a1-3)Gal(b1-4)GlcNAc(b1-2)Man(a1-6)]Man(b1-4)GlcNAc(b1-4)GlcNAc
In short: as §1

[3] = molecular target: Gal(a1-3)Gal(b1-4)GlcNAc(b1-3)GalNAc
In short: as §1

[4] = molecular target: Gal(a1-3)Gal(b1-4)GlcNAc(b1-6)GalNAc
In short: as §1

[5] = molecular target: Gal(a1-3)Gal(b1-4)[Fuc(a1-3)]GlcNAc
In short: as §1

[6] = molecular target: Gal(a1-3)Gal(b1-4)[Fuc(a1-3)]GlcNAc(b1-2)Man(a1-3)[Gal(a1-3)Gal(b1-4)[Fuc(a1-3)]GlcNAc(b1-2)Man(a1-6)]Man(b1-4)GlcNAc(b1-4)GlcNAc
In short: as §1

Gal(a1-3)GalNAc = molecular target: Gal(a1-3)GalNAc
In short: as §1

[7] = molecular target: Gal(a1-3)[Gal(a1-4)]Gal(b1-4)GlcNAc
In short: as §1

[8] = molecular target: Gal(a1-4)Gal(b1-3)GlcNAc(b1-2)Man(a1-3)[Gal(a1-4)Gal(b1-3)GlcNAc(b1-2)Man(a1-6)]Man(b1-4)GlcNAc(b1-4)GlcNAc
In short: as §1

Gal(a1-4)Gal(b1-4)Glc = molecular target: Gal(a1-4)Gal(b1-4)Glc
In short: as §1

Gal(a1-4)Gal(b1-4)GlcNAc = molecular target: Gal(a1-4)Gal(b1-4)GlcNAc
In short: as §1

[9] = molecular target: Gal(a1-4)Gal(b1-4)GlcNAc(b1-2)Man(a1-3)[Gal(a1-4)Gal(b1-4)GlcNAc(b1-2)Man(a1-6)]Man(b1-4)GlcNAc(b1-4)GlcNAc
In short: as §1

[10] = molecular target: Gal(a1-4)Gal(b1-4)GlcNAc(b1-3)Gal(b1-4)Glc
In short: as §1

Gal(a1-4)GlcNAc = molecular target: Gal(a1-4)GlcNAc
In short: as §1

Gal(a1-6)Glc = molecular target: Gal(a1-6)Glc
In short: as §1

Gal(b1-2)Gal = molecular target: Gal(b1-2)Gal
In short: as §1

Gal(b1-3)Gal = molecular target: Gal(b1-3)Gal
In short: as §1

Gal(b1-3)Gal(b1-4)GlcNAc = molecular target: Gal(b1-3)Gal(b1-4)GlcNAc
In short: as §1

Gal(b1-3)GalNAc = molecular target: Gal(b1-3)GalNAc
In short: as §1

[11] = molecular target: Gal(b1-3)GalNAc(a1-3)[Fuc(a1-2)]Gal(b1-4)Glc
In short: as §1

[12] = molecular target: Gal(b1-3)GalNAc(a1-3)[Fuc(a1-2)]Gal(b1-4)GlcNAc
In short: as §1

Gal(b1-3)GalNAc(b1-3)Gal = molecular target: Gal(b1-3)GalNAc(b1-3)Gal
In short: as §1

[13] = molecular target: Gal(b1-3)GalNAc(b1-3)Gal(a1-4)Gal(b1-4)Glc
In short: as §1

[14] = molecular target: Gal(b1-3)GalNAc(b1-4)Gal(b1-4)Glc
In short: as §1

[15] = molecular target: Gal(b1-3)GalNAc(b1-4)[Neu5Ac(a2-3)]Gal(b1-4)Glc
In short: as §1

Gal(b1-3)GlcNAc = molecular target: Gal(b1-3)GlcNAc
In short: as §1

[16] = molecular target: Gal(b1-3)GlcNAc(a1-3)Gal(b1-4)GlcNAc
In short: as §1

[17] = molecular target: Gal(b1-3)GlcNAc(a1-6)Gal(b1-4)GlcNAc
In short: as §1

Gal(b1-3)GlcNAc(b1-2)Man = molecular target: Gal(b1-3)GlcNAc(b1-2)Man
In short: as §1

[18] = molecular target: Gal(b1-3)GlcNAc(b1-2)Man(a1-3)[Gal(b1-3)GlcNAc(b1-2)Man(a1-6)]Man(b1-4)GlcNAc(b1-4)GlcNAc
In short: as §1

[19] = molecular target: Gal(b1-3)GlcNAc(b1-2)Man(a1-3)[Gal(b1-3)GlcNAc(b1-2)Man(a1-6)]Man(b1-4)GlcNAc(b1-4)[Fuc(a1-6)]GlcNAc
In short: as §1

[20] = molecular target: Gal(b1-3)GlcNAc(b1-2)Man(a1-3)[GlcNAc(b1-4)][Gal(b1-3)GlcNAc(b1-2)Man(a1-6)]Man(b1-4)GlcNAc(b1-4)GlcNAc
In short: as §1

[21] = molecular target: Gal(b1-3)GlcNAc(b1-2)[Gal(b1-3)GlcNAc(b1-6)]Man(a1-6)[Gal(b1-3)GlcNAc(b1-2)Man(a1-3)]Man(b1-4)GlcNAc(b1-4)GlcNAc
In short: as §1

[22] = molecular target: Gal(b1-3)GlcNAc(b1-3)Gal(b1-3)GlcNAc
In short: as §1

[23] = molecular target: Gal(b1-3)GlcNAc(b1-3)Gal(b1-4)Glc
In short: as §1

[24] = molecular target: Gal(b1-3)GlcNAc(b1-3)Gal(b1-4)GlcNAc
In short: as §1

[25] = molecular target: Gal(b1-3)GlcNAc(b1-3)Gal(b1-4)GlcNAc(b1-2)Man(a1-3)[Gal(b1-3)GlcNAc(b1-3)Gal(b1-4)GlcNAc(b1-2)Man(a1-6)]Man(b1-4)GlcNAc(b1-4)GlcNAc
In short: as §1

B1: ECL (Erythrina cristagalli), Q6YD91 (protein)
chain: VETISFSFSEFEPGNNDLTLQGAAIITQSGVLQLTKINQNGMPAWDSTGRTLYTKPVHIWDMTTGTVASFETRFSFSIEQPYTRPLPADGLVFFMGPTKSKPAQGYGYLGVFNNSKQDNSYQTLAVEFDTFSNPWDPPQVPHIGIDVNSIRSIKTQPFQLDNGQVANVVIKYDASSKILLAVLVYPSSGAIYTIAEIVDVKQVLPEWVDVGLSGATGAQRDAAETHDVYSWSFHASLPETND
Question: With B1 as the binder, how does the “glycan array binding signal (z-score)” value [1] read?
Answer: -0.116

Question: And the “glycan array binding signal (z-score)” value [2]?
Answer: 0.249

Question: And the “glycan array binding signal (z-score)” value [3]?
Answer: -0.276

Question: What about the “glycan array binding signal (z-score)” value [4] of the same binder?
Answer: -0.406

Question: What about the “glycan array binding signal (z-score)” value [5] of the same binder?
Answer: -0.139

Question: What about the “glycan array binding signal (z-score)” value [6] of the same binder?
Answer: -0.351

Question: And the “glycan array binding signal (z-score)” value (Gal(a1-3)GalNAc)?
Answer: -0.134

Question: What about the “glycan array binding signal (z-score)” value [7] of the same binder?
Answer: 0.022

Question: And the “glycan array binding signal (z-score)” value [8]?
Answer: -0.154

Question: What about the “glycan array binding signal (z-score)” value (Gal(a1-4)Gal(b1-4)Glc) of the same binder?
Answer: -0.119

Question: And the “glycan array binding signal (z-score)” value (Gal(a1-4)Gal(b1-4)GlcNAc)?
Answer: -0.21

Question: And the “glycan array binding signal (z-score)” value [9]?
Answer: 0.492

Question: And the “glycan array binding signal (z-score)” value [10]?
Answer: -0.257

Question: What about the “glycan array binding signal (z-score)” value (Gal(a1-4)GlcNAc) of the same binder?
Answer: -0.353

Question: What about the “glycan array binding signal (z-score)” value (Gal(a1-6)Glc) of the same binder?
Answer: -0.235

Question: What about the “glycan array binding signal (z-score)” value (Gal(b1-2)Gal) of the same binder?
Answer: -0.123

Question: What about the “glycan array binding signal (z-score)” value (Gal(b1-3)Gal) of the same binder?
Answer: -0.289

Question: What about the “glycan array binding signal (z-score)” value (Gal(b1-3)Gal(b1-4)GlcNAc) of the same binder?
Answer: -0.1

Question: What about the “glycan array binding signal (z-score)” value (Gal(b1-3)GalNAc) of the same binder?
Answer: -0.308

Question: And the “glycan array binding signal (z-score)” value [11]?
Answer: -0.16

Question: And the “glycan array binding signal (z-score)” value [12]?
Answer: -0.253

Question: And the “glycan array binding signal (z-score)” value (Gal(b1-3)GalNAc(b1-3)Gal)?
Answer: -0.496

Question: What about the “glycan array binding signal (z-score)” value [13] of the same binder?
Answer: -0.199

Question: What about the “glycan array binding signal (z-score)” value [14] of the same binder?
Answer: -0.141

Question: What about the “glycan array binding signal (z-score)” value [15] of the same binder?
Answer: -0.283

Question: And the “glycan array binding signal (z-score)” value (Gal(b1-3)GlcNAc)?
Answer: -0.327

Question: And the “glycan array binding signal (z-score)” value [16]?
Answer: -0.574

Question: What about the “glycan array binding signal (z-score)” value [17] of the same binder?
Answer: -0.22

Question: And the “glycan array binding signal (z-score)” value (Gal(b1-3)GlcNAc(b1-2)Man)?
Answer: -0.203

Question: What about the “glycan array binding signal (z-score)” value [18] of the same binder?
Answer: -0.106

Question: And the “glycan array binding signal (z-score)” value [19]?
Answer: -0.074

Question: What about the “glycan array binding signal (z-score)” value [20] of the same binder?
Answer: -0.3

Question: And the “glycan array binding signal (z-score)” value [21]?
Answer: -0.139

Question: What about the “glycan array binding signal (z-score)” value [22] of the same binder?
Answer: -0.206

Question: What about the “glycan array binding signal (z-score)” value [23] of the same binder?
Answer: -0.286

Question: And the “glycan array binding signal (z-score)” value [24]?
Answer: -0.332

Question: What about the “glycan array binding signal (z-score)” value [25] of the same binder?
Answer: -0.304
